Screen size: about 45,000 compounds; about 200 (0.44%) were called active. Inconclusive results (about 7%) are left out. The call rests on the fitted dose curve; in most records, active means well fitted activation curve with a large enough effect; inconclusive means small, poorly fitted or top-dose-only effect; inactive means no such curve, though single readings can be large or run the other way. The list shows a part of the results.
Assay: qHTS of TDP-43 Inhibitors: NCGC Sytravon Library Screen; further: 0% is about no effect; nearly all actives have a fitted effect of over 55% in size
Settings: yeast TDP-43 toxicity rescue, BacTiter-Glo growth, 24 h; at 46.1 µM (top of the series)
Outline: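 TDP-43-expressing yeast, pregrown in raffinose, seeded at OD600 0.02 in galactose medium with compound for 24 hr at 30 deg C. Growth read by BacTiter-Glo luminescence, so rescue of toxicity appears as activation.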

SMILES | growth rescue (activation)
Cn1c(O)c(/C=N/N2CCCCC2)c(=O)[nH]c1=O | inactive: -7.24%
CCn1cc(CN2CCCC(C(=O)c3cccc(OC)c3)C2)c(C)n1 (centres undefined) | inactive: 5.91%
CN1C(=O)N(C)C(=O)C2(Cc3cc([N+](=O)[O-])ccc3N(C)C2c2ccccc2)C1=O (centres undefined) | inactive: 2.01%
CCOc1cc2c(cc1OCC)-n1cccc1C(c1ccc(C(C)C)cc1)NC2 (centres undefined) | inactive: 12%
CCOc1ccccc1-n1c(O)c(C=NCCCN(CC)CC)c(=O)[nH]c1=O | inactive: 29.5%
Cc1cccc(N=Nc2ccc(N(C)C)cc2)c1 | inactive: 13.1%
O=c1c2ccccc2nc(/C=C/c2ccc3c(c2)OCO3)n1-c1cccc(O)c1 | inactive: 13.9%
Cc1ccc(C)c(NC2=NCCCS2)c1 | inactive: -16.1%
CC1(C)CSC(=NCc2ccccc2)N1 | inactive: 9.65%
Cc1ccc(OCCn2cccc2/C=C2/C(=O)NC(=O)N(Cc3ccco3)C2=O)cc1 | inactive: 2.34%
Fc1ccc(C2=CCN(C(c3ccc(Cl)cc3)c3nnnn3Cc3ccccc3)CC2)cc1 (centres undefined) | inactive: 22.1%
COC(=O)Cn1cc(/C=C2\C(=O)NC(=O)N(c3ccc(OC)cc3)C2=O)c2ccccc21 | inactive: -36.7%
CCCCN=C[C@]12CCC(O)CC1(O)CCC1[C@@H]2CC[C@]2(C)[C@H](C3C=CC(=O)O3)CCC12O (some centres undefined) | inactive: -21.2%
CN(C)/C=C/C(=O)C(Cl)(Cl)Cl | inactive: 17.7%
C[C@]12CCC3C(CC[C@H]4C[C@@H](O)CC[C@]34C)C1C[C@@H](O)[C@@H]2O (some centres undefined) | inactive: 12.4%
Cc1c(C=O)c2ccccc2n1Cc1ccc([N+](=O)[O-])cc1 | inactive: 23.8%
C[C@]12C=CC(=O)C=C1CC[C@@H]1C2CC[C@]2(C)OC(=O)CCC12 (some centres undefined) | inactive: 2.24%
O=c1[nH]c(=S)n(C2CC2)c(O)c1C=Nc1ccc2c(c1)OCO2 | inactive: 1.29%
CCN1C(=O)NC(=O)/C(=C/c2cc(C)n(-c3sc(C)c(C)c3C#N)c2C)C1=O | inactive: -14.4%
CC(=O)[C@@]1(O)CCC2C3CC=C4C[C@@H](O)CC[C@]4(C)C3CC[C@@]21C (some centres undefined) | inactive: 10.1%
O=C(Nc1ccc(F)cc1F)c1cccn(Cc2ccccc2)c1=O | inactive: 15.5%
CCN(CC)S(=O)(=O)c1ccc(N=Cc2c(O)n(-c3ccccc3)c(=O)[nH]c2=O)cc1 | inactive: -34%
Nc1c2c(nc3sc4c(c13)CCCC4)CCCCC2 | inactive: -1.94%
Cc1c(N=Cc2c(O)n(CCc3ccccc3)c(=O)[nH]c2=O)c(=O)n(-c2ccccc2)n1C | inactive: 10.9%

From PubChem BioAssay AID1347073 (National Center for Advancing Translational Sciences (NCATS), 2019)
